Results reported in PMC11237553, “De novo synthetic antimicrobial peptide design with a recurrent neural network” (Protein Science : A Publication of the Protein Society, 2024).
In brackets after ≈: the same amount, converted by molar mass.

Assays:
[1] = system: Escherichia coli ATCC 25922; assay: Broth microdilution antimicrobial susceptibility testing (MIC/MBC); type: cell-based; details: one maximum and one minimum data point dropped; for MIC, E. coli ATCC 25922: broth microdilution (CLSI, adapted for cationic AMPs), Mueller‐Hinton Broth, 5 ± 3 × 10^5 CFU/mL, 20–24 h at 37°C, test range 128 down to 0.25 μg/mL, lowest effective concentration range in three independent experiments in duplicate; for MBC, E. coli ATCC 25922: concentration killing 99.9% of the inoculum, plated from MIC wells, 24 h at 37°C, range in three independent experiments in duplicate
Description: (§1) Bacteria from frozen stocks were streaked onto non‐selective Columbia blood agar with 5% sheep blood (Oxoid) and incubated for 18–24 h at 37°C. The following day, 2–4 colonies were streaked onto a new agar plate and incubated for 18–24 h at 37°C to ensure uniform colony health prior to the assay. A standardized bacterial inoculum was prepared by suspending isolated colonies in Mueller‐Hinton Broth (MHB; Sigma‐Aldrich, St. Louis, MO, USA). The suspension was adjusted to an optical density of 0.08–0.1 at 600 nm, equivalent to a 0.5 McFarland standard of approximately 1–2 × 10^8 CFU/mL (CFU: colony forming units). The inoculum was then diluted 1:250 to achieve a final concentration of 5 ± 3 × 10^5 CFU/mL. The target bacterial density was confirmed by examining the total viability counts from the final inoculum.
(§2) Candidate AMPs were purchased from and synthesized by GenScript (Piscataway, NJ, USA). These were received in lyophilized format and stored at −20°C, and were suspended in sterile ultrapure water prior to testing.

[2] = system: Staphylococcus aureus ATCC 29213; assay: as above; type: cell-based; details: one maximum and one minimum data point dropped; for MIC, S. aureus ATCC 29213: broth microdilution (CLSI, adapted for cationic AMPs), Mueller‐Hinton Broth, 5 ± 3 × 10^5 CFU/mL, 20–24 h at 37°C, test range 128 down to 0.25 μg/mL, lowest effective concentration range in three independent experiments in duplicate; for MBC, S. aureus ATCC 29213: concentration killing 99.9% of the inoculum, plated from MIC wells, 24 h at 37°C, range in three independent experiments in duplicate
Description: as §1, §2

[3] = system: Porcine red blood cells (RBCs); assay: Hemolysis assay; type: cell-based, pig; details: 1% porcine RBC in RPMI, 37°C for 30–45 min, absorbance 415 nm, test range 128 down to 1 μg/mL, Triton‐X100 = 100%; range in three independent experiments in duplicate, one maximum and one minimum data point dropped

Row | SMILES | MIC, E. coli ATCC 25922 [1] [µg/mL] | MBC, E. coli ATCC 25922 [1] [µg/mL] | MIC, S. aureus ATCC 29213 [2] [µg/mL] | MBC, S. aureus ATCC 29213 [2] [µg/mL] | HC50 (concentration that lyses 50% of the RBCs), porcine RBCs [3] [µg/mL]
1 | CC[C@H](C)[C@H](NC(=O)[C@H](CCCCN)NC(=O)[C@H](CS)NC(=O)[C@H](Cc1ccccc1)NC(=O)[C@H](CC(C)C)NC(=O)[C@H](CCCCN)NC(=O)[C@@H]1CCCN1C(=O)[C@H](CC(C)C)NC(=O)[C@H](CC(C)C)NC(=O)[C@H](CCCCN)NC(=O)[C@H](C)NC(=O)[C@H](C)NC(=O)[C@H](CC(C)C)NC(=O)CNC(=O)[C@H](C)NC(=O)[C@@H](NC(=O)[C@@H](NC(=O)[C@@H]1CCCN1C(=O)[C@H](CC(C)C)NC(=O)[C@@H](N)Cc1ccccc1)[C@@H](C)CC)[C@@H](C)CC)C(=O)N[C@H](C(=O)N[C@@H](CCCCN)C(=O)N[C@@H](CCCCN)C(=O)N[C@@H](CS)C(=O)O)[C@@H](C)O [DeNo1017] | 4 (≈ 1.52 µM) | 4 (≈ 1.52 µM) | 2 to 4 | 2 to 4 | 16
2 | CC[C@H](C)[C@H](NC(=O)[C@H](CCCCN)NC(=O)[C@@H]1CCCN1C(=O)[C@H](CC(C)C)NC(=O)[C@@H](N)CCSC)C(=O)N[C@@H](Cc1ccccc1)C(=O)NCC(=O)N[C@@H](CCCCN)C(=O)N[C@H](C(=O)N[C@@H](Cc1ccccc1)C(=O)N[C@@H](CCCCN)C(=O)N[C@@H](CCCCN)C(=O)N[C@H](C(=O)N[C@@H](CC(C)C)C(=O)N[C@@H](CCCCN)C(=O)N[C@@H](CCCCN)C(=O)N[C@H](C(=O)N[C@@H](CC(C)C)C(=O)N[C@@H](CCCCN)C(=O)N[C@@H](CCCCN)C(=O)N[C@H](C(=O)N[C@@H](CC(C)C)C(=O)N[C@@H](CCCCN)C(=O)N[C@@H](CCCCN)C(=O)N[C@H](C(=O)N[C@@H](CC(C)C)C(=O)N[C@@H](CCCCN)C(=O)N[C@@H](CCCCN)C(=O)N[C@@H](CC(C)C)C(=O)N[C@@H](CC(C)C)C(=O)N[C@@H](CCCCN)C(=O)N[C@@H](CCCCN)C(=O)N[C@@H](CC(C)C)C(=O)O)[C@@H](C)CC)[C@@H](C)CC)[C@@H](C)CC)[C@@H](C)CC)[C@@H](C)CC [DeNo1039] | > 128 | > 128 | > 128 | > 128 | 32 to 64
3 | CC[C@H](C)[C@H](NC(=O)[C@H](CCCCN)NC(=O)[C@@H]1CCCN1C(=O)[C@H](CC(C)C)NC(=O)[C@H](Cc1ccccc1)NC(=O)[C@H](CCCCN)NC(=O)[C@H](C)NC(=O)[C@H](C)NC(=O)[C@H](CC(C)C)NC(=O)CNC(=O)[C@H](C)NC(=O)[C@@H](NC(=O)[C@@H](NC(=O)[C@@H]1CCCN1C(=O)[C@H](CC(C)C)NC(=O)[C@@H](N)Cc1ccccc1)[C@@H](C)CC)[C@@H](C)CC)C(=O)N[C@@H](Cc1ccccc1)C(=O)N[C@@H](CS)C(=O)N[C@@H](CCCCN)C(=O)N[C@H](C(=O)N[C@H](C(=O)N[C@@H](CCCCN)C(=O)N[C@@H](CCCCN)C(=O)N[C@@H](CS)C(=O)O)[C@@H](C)O)[C@@H](C)CC [DeNo1016] | 4 (≈ 1.5 µM) | 4 (≈ 1.5 µM) | 2 to 4 | 2 to 8 | 4 to 8
